# Reference: PubChem BioAssay (Tox21)
# The shares of active, inactive and inconclusive entries below differ from those in the screen. For some of these results: Potencies beside an inconclusive call are fits to weak or partial responses and may not hold up. The source made the active and inactive calls. Unless noted, the call rests on the fitted dose curve; in most records, active means well fitted curve in the direction sought with a large enough effect in the repeat runs; inconclusive means weak or mixed curves; inactive means no such curve, though single readings can be large; an effect the other way counts as inactive or inconclusive.
# Tests used:
# [1] = qHTS assay to identify small molecule antagonists of the estrogen related receptor (ERR) signaling pathway (AID 1224819;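 further: luminescence from an ERR-driven luciferase reporter measured with One-Glo reagent; on the % scale 0 is the no-effect control and ±100 the full control effect; nearly all actives have a fitted effect of over 50% in size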)
# How it was run: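 Luminescence readout (One-Glo, 30 min, RT) of ERR cell line after 18 h compound exposure at 37 C; cells seeded 2,000/well, pre-incubated 6 h, compounds pinned from DMSO stocks.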
# [2] = qHTS assay to identify small molecule antagonists of the retinoid acid receptor (RAR) signaling pathway - cell viability counter screen (AID 1159551); further: on the % scale 0 is the no-effect control and ±100 the full control effect; nearly all actives have a fitted effect of over 35% in size
# How it was run: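 Retinol-stimulated (1 uM final) C3RL4 cells, compound 6 h, 37 C; readout CellTiter-Glo luminescence (ATP) after 30 min RT incubation.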
# [3] = qHTS assay to identify small molecule agonists of the TGF-beta/Smad signaling pathway - cell viability counter screen (AID 1346829); further: top concentration of the series differs between compounds; on the % scale 0 is the no-effect control and ±100 the full control effect; nearly all actives have a fitted effect of over 45% in size
# How it was run: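 HEK 293T SBE-bla line, 5 hr compound exposure at 37 C, multiplexed CellTiter-Glo viability read by luminescence.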
# [4] = target: Estrogen receptor (Homo sapiens) (UniProt P03372); assay: qHTS assay to identify small molecule agonists of the estrogen receptor alpha (ER-alpha) signaling pathway in the presence of an antagonist (AID 1259383; calls by dose curve; further: potency means the concentration at half of the fitted maximal effect; nearly all actives have a fitted effect of over 15% in size)
# How it was run: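 Stably transfected VM7Luc4E2 reporter cells, kept 5 days in charcoal-stripped serum, received ICI-182,780 at 10.0nM final before compound addition. Following 22hr incubation at 37C and 5% CO2, luciferase signal was read by luminescence.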
# [5] = qHTS assay to identify small molecule agonists or antagonists of the thyroid stimulating hormone receptor (TSHR) signaling pathway - wild type cell line counter screen (AID 1259384; calls by dose curve; further: on the % scale 0 is the no-effect control and ±100 the full control effect); details: HEK293 wild type, cAMP HTRF counter-screen; at 92.4 µM (top of the series); stronger effect = higher value
# How it was run: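 Wild-type Hek293 cells, 800/well, 18 h at 37C, then compound with Ro20-1724 for 30 min RT. cAMP by HTRF (cAMP-d2/anti-cAMP cryptate), 1 h RT, fluorescence read. 15 concentrations, triplicates.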
# [6] = qHTS assay to identify small molecule antagonists of the estrogen related receptor (ERR) signaling pathway - cell viability counter screen (AID 1224818);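 further: viability measured after 17.5 h of compound exposure; on the % scale 0 is the no-effect control and ±100 the full control effect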
# How it was run: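 After a 6 h pre-incubation, ERR cells were dosed by pin tool with compounds, positive/negative controls or DMSO alone. Following 17.5 h at 37 C and 30 min with CellTiter-Fluor, fluorescence was recorded.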
# [7] = target: Androgen receptor (Homo sapiens) (UniProt P10275); assay: qHTS assay to identify small molecule antagonists of the androgen receptor (AR) signaling pathway using the MDA cell line (AID 743042; further: nearly all actives have a fitted effect of over 55% in size; further: potency means the concentration at half of the fitted maximal effect)
# How it was run: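 MDA-kb2 breast carcinoma cells carrying MMTV-luciferase (AR/GR responsive) were co-treated with compounds and the agonist R1881 for 16 h at 37C. Inhibition read as ONE-Glo luminescence; CellTiter-Fluor fluorescence measured in parallel for cytotoxicity.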
# [8] = tested on: estrogen-related receptor alpha (ERRalpha) with PGC-1alpha coactivator, human; assay: qHTS assay to identify small molecule antagonists of the estrogen related receptor signaling pathway with the pleiotropic PPARgamma coactivator (PGC) (AID 1224821; calls by dose curve;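 further: on the % scale 0 is the no-effect control and ±100 the full control effect; lower luminescence signal means antagonism of PGC/ERR signalling; nearly all actives have a fitted effect of over 50% in size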)
# How it was run: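 Cells engineered for PGC/ERR signalling (line from NTP) were plated 6 h at 37 C/5% CO2, then exposed to DMSO-dissolved compound for 18 h at 37 C. Luciferase activity was read by One-Glo luminescence after 30 min at room temperature.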
# [9] = qHTS assay for small molecule activators of the heat shock response signaling pathway (AID 743210; active means well fitted activation curve with a large enough effect in the signal ratio in the repeat runs, with a control signal flat, not every such curve was filed as active; inconclusive means weak or mixed curves; the % refers to the signal ratio;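 further: HeLa cells with beta-lactamase reporter driven by heat shock elements; on the % scale 0 is the no-effect control and ±100 the full control effect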); details: HeLa HSE-bla reporter, beta-lactamase ratio, 5 h; activation: at 62.6 µM (top of the series) unless noted
# How it was run: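 Quantitative high-throughput format using an engineered HeLa line in which heat shock response elements drive beta-lactamase; after 5 h with compound, cells received a B/G FRET substrate and fluorescence was read.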
# [10] = A CellTox Green Cytotoxicity Assay to monitor cytotoxicity in HepG2 cells - 0 hour (AID 1224882); details: CellTox Green fluorescence; further: potency means the concentration at half of the fitted maximal effect; nearly all actives have a fitted effect of over 35% in size
# How it was run: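 Using 1536-well format, dye-containing HepG2 suspension was seeded, allowed 5 h at 37 C/5% CO2, dosed by pintool with compounds, positive and negative controls, and imaged for fluorescence across 40 h.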
# [11] = Caspase-3/7 induction in HepG2 cells by small molecules, qHTS assay (AID 1346978); further: nearly all actives have a fitted effect of over 15% in size; further: potency means the concentration at half of the fitted maximal effect
# How it was run: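 Wild-type HepG2 cells, 2,000/well, settled 5 hr at 37 C and 5% CO2, then compound-treated for 17 hr; caspase-3/7 activity read by luminescent Caspase-Glo 3/7 after 30 min at room temperature.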
# [12] = Caspase-3/7 induction in CHO-K1 cells by small molecules, qHTS assay (AID 1346980); further: on the % scale 0 is the no-effect control and ±100 the full control effect; nearly all actives have a fitted effect of over 15% in size
# How it was run: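 Wild-type CHO-K1 cells exposed to compounds for 17hr at 37 C, 5% CO2. Caspase-3/7 activity then measured by Caspase-Glo 3/7 luminescence after 30min at room temperature.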
# [13] = target: Acetylcholinesterase (Homo sapiens) (UniProt P22303); assay: Acetylcholinesterase (AChE) small molecule antagonists: enzyme-based qHTS assay with human liver microsomes (AID 1347399; calls by dose curve; further: potency means the concentration at half of the fitted maximal effect; nearly all actives have a fitted effect of over 60% in size); details: Potency: qHTS inhibition
# How it was run: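 Recombinant human AChE (50 mU/mL in the enzyme mix) and human liver microsomes (0.25 mg/mL final) were preincubated with compound and NADPH (0.25 mg/mL final) for 30 min at 37 C. Acetylthiocholine/DTNB was then added; thiocholine was read colorimetrically after 10 min at room temperature.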
# [14] = target: Nuclear receptor subfamily 1 group I member 2 (Homo sapiens) (UniProt O75469); assay: CYP3A4 induction through human pregnane X receptor (PXR) by small molecules, qHTS assay (AID 1346984); details: DPX-2 HepG2 PXR, CYP3A4-luciferin luminescence, 24 h; activation: at 46.1 µM (top of the series); further: potency means the concentration at half of the fitted maximal effect; nearly all actives have a fitted effect of over 40% in size
# How it was run: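 Readings come from a luciferase reporter: DPX-2 cells, which are HepG2 cotransfected with PXR and a CYP3A4-promoter construct, were exposed to test compounds for 24 h at 37C before One-Glo detection.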
# [15] = qHTS RealTime-Glo MT Cell Viability Assay in HepG2 cells - 8 hour (AID 1224873); further: nearly all actives have a fitted effect of over 55% in size; further: potency means the concentration at half of the fitted maximal effect
# How it was run: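 HepG2 cells (600/well) mixed with RealTime-Glo MT reagent, settled 5 h at 37 C/5% CO2 before compound addition. Nonlytic NanoLuc luminescence from viable-cell prosubstrate reduction read repeatedly during 40 h treatment at 37 C.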
# [16] = qHTS assay to identify small molecule antagonists of the TGF-beta/Smad signaling pathway (AID 1346924; active means well fitted inhibition curve with a large enough effect in the signal ratio in the repeat runs, not every such curve was filed as active; inconclusive means weak or mixed curves; the % refers to the signal ratio; further: potency means the concentration at half of the fitted maximal effect); details: SBE-bla HEK293T, TGF-beta/Smad reporter, beta-lactamase ratio; activity, negative = inhibition: at 76.8 µM (top of the series) unless noted
# How it was run: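 SBE-bla HEK 293T cells were plated overnight, then received compound in DMSO plus TGF-beta1 (added as a 0.25 ng/mL solution) and were incubated 5 h at 37 C. Beta-lactamase reporter activity was read after 2 h at room temperature with LiveBLAzer B/G FRET substrate (ex 405, em 460/530 nm).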
# [17] = qHTS assay for small molecule agonists of the p53 signaling pathway - cell viability (AID 651633; calls by dose curve;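 further: p53RE-bla HCT reporter cells with a stable beta-lactamase p53 reporter; on the % scale 0 is the no-effect control and ±100 the full control effect; nearly all actives have a fitted effect of over 30% in size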)
# How it was run: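 p53RE-bla cells were treated with compound for 16 hours at 37 C. Cytotoxicity was then measured as CellTiter-Glo luminescence after 30 min at room temperature.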
# [18] = qHTS assay to identify small molecule antagonists of the estrogen related receptor signaling pathway with the pleiotropic PPARgamma coactivator (PGC) cell viability counter screen (AID 1224822;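 further: viability read after 17.5 h compound exposure; on the % scale 0 is the no-effect control and ±100 the full control effect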)
# How it was run: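 PGC/ERR cells were plated at 2,000 per well and allowed 6 h to settle before compound addition. Following 17.5 h at 37 C, CellTiter-Fluor reagent was added and fluorescence was read 30 min later.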
# [19] = target: Androgen receptor (Homo sapiens) (UniProt P10275); assay: qHTS assay to identify small molecule antagonists of the androgen receptor (AR) signaling pathway using the MDA cell line in the presence of 0.5 nM R1881 (AID 1259243); further: on the % scale 0 is the no-effect control and ±100 the full control effect; nearly all actives have a fitted effect of over 50% in size
# How it was run: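 Reporter cells cultured without CO2 receive test chemicals, then 0.5 nM R1881 final; after 16 hr at 37C, ONE-Glo is added and light output recorded.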
# [20] = qHTS assay to identify small molecule phospholipidosis (PLD) inducers (AID 1259344; active means well fitted curve in the direction sought with a large enough effect; inconclusive means small, poorly fitted or top-dose-only effect, or another doubt; inactive means no such curve, though single readings can be large; an effect the other way counts as inactive or inconclusive; further: potency means the concentration at half of the fitted maximal effect)
# How it was run: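 Quantitative HTS in HepG2: compound plus LipidTOX Red dye for 24 h, paraformaldehyde fixation with Hoechst 33342, widefield high-content imaging; amiodarone as positive and DMSO as negative control.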
# Tags describe the fitted curve by direction and shape or compound fluorescence and quenching.
# Chain of UniProt P22303 (P22303 whole entry, looked up): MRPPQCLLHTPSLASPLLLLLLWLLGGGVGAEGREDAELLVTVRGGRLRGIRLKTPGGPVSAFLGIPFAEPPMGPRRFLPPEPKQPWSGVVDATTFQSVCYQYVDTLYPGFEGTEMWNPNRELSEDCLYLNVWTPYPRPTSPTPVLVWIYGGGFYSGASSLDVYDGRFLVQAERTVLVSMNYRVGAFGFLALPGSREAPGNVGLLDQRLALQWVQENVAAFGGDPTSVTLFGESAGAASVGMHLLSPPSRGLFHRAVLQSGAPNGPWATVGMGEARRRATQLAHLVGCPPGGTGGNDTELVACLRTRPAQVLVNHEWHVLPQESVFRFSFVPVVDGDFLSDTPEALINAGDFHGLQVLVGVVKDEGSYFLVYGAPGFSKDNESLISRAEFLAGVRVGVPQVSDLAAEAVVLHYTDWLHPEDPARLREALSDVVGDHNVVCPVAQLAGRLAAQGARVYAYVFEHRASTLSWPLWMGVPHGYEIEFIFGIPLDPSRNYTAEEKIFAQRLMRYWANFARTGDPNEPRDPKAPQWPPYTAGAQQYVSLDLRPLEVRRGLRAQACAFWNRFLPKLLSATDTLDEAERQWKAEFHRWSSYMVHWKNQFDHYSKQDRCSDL
# Chain of UniProt P10275 (P10275 whole entry, looked up): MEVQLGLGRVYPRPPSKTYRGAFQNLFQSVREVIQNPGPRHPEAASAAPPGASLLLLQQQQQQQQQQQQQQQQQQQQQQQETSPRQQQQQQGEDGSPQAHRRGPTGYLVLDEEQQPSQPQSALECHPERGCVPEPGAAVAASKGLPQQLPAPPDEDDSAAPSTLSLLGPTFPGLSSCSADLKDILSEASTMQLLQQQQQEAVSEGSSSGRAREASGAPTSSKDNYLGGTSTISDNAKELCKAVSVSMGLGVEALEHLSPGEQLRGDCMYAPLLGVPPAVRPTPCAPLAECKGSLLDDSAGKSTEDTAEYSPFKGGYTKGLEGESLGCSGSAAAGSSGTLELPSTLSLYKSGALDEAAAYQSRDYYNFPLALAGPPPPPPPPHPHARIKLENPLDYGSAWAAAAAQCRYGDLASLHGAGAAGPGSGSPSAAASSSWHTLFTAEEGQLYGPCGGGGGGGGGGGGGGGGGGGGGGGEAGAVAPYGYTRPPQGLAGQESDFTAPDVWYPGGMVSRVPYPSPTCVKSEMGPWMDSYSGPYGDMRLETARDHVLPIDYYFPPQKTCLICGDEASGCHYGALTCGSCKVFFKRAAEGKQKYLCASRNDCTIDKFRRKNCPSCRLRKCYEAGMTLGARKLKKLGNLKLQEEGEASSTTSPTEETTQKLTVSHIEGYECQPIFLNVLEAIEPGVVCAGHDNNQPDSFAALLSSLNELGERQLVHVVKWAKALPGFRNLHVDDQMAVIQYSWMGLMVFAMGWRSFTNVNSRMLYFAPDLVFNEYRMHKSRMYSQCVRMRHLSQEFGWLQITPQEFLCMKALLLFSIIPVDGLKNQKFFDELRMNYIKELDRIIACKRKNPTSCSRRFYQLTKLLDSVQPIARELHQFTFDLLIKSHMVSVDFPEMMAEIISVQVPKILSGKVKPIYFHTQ
# Chain of UniProt P03372 (P03372 whole entry, looked up): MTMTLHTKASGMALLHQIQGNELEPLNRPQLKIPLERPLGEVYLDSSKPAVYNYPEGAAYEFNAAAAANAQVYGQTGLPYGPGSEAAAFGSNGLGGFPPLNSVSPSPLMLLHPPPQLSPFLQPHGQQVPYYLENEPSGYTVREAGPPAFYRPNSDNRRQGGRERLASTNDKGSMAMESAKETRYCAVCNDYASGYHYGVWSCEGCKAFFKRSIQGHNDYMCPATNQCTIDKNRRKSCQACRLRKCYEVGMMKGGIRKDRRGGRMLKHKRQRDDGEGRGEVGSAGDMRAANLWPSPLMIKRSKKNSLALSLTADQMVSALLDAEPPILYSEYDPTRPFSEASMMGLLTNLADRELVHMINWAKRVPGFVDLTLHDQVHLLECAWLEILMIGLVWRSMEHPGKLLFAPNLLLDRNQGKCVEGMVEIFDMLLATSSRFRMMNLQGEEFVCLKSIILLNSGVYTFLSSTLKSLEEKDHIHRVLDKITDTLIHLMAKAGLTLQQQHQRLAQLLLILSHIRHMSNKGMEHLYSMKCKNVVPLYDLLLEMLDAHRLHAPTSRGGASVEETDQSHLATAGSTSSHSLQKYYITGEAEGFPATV
smiles,measurement,setting,value
O=c1[nH]oc2c1CCNC2,Potency,[1],inactive
C=CC#N,Potency,[2],inactive
CC(C)OC(=O)Nc1ccccc1,Potency,[3],inactive
Nc1ccc2ccccc2c1,Potency,[4],"inconclusive: 38.6 µM [activator, partial curve, poor fit]"
Cc1cc(-c2cc(C)c(N)c(C)c2)cc(C)c1N,cAMP activity change,[5],inconclusive: -17.9%
CC[N+](CC)(CC)CC,Potency,[6],inactive
CC[C@@H](CO)NC(=O)[C@@H]1C=C2c3cccc4[nH]cc(c34)C[C@H]2N(C)C1,Potency,[7],"inconclusive: 29.8 µM [inhibitor, partial curve, poor fit]"
same,Potency,[1],inactive
same,Potency,[8],inactive
CCCCCCCCOC(=O)c1ccc(C(=O)OCCCCCCCC)c(C(=O)OCCCCCCCC)c1,activation,[9],inconclusive: -0.967% [at 81.1 µM]
CCCN1CCC[C@@H]2Cc3nc(N)ncc3C[C@H]21,Potency,[10],"inconclusive: 26.8 µM [activator, single point]"
Cl/C=C\CCl,Potency,[2],inactive
CCOC(C(=O)OCCN(C)C)(c1ccccc1)c1ccccc1,Potency,[11],inactive
C[C@]12CC[C@H]3[C@@H](CCC4=CC(=O)CC[C@@H]43)[C@@H]1CC[C@@H]2OC(=O)CCC1CCCCC1,Potency,[12],inactive
COc1ccc2c(C(=O)c3ccc(Cl)cc3)c(C)n(CC(=O)O)c2c1,Potency,[12],inactive
COc1ccc2c(c1OC)C(=O)O[C@H]2[C@@H]1c2cc3c(cc2CCN1C)OCO3,Potency,[6],inactive
CNC(=O)Oc1cccc(N=CN(C)C)c1,cAMP activity change,[5],inactive: -2.46%
same,Potency,[13],active: 63.3 µM
CC(C)(C)OC(=O)c1ncn2c1[C@@H]1CCCN1C(=O)c1c(Br)cccc1-2,Potency,[14],"inconclusive: 4.47 µM [activator, partial curve, poor fit]"
CCOS(C)(=O)=O,Potency,[15],inactive
COc1ccc2c(c1OC)CN1CCc3cc4c(cc3C1C2)OCO4 (stereo not drawn),Potency,[13],"inconclusive: 38.9 µM [falling, single point]"
Nc1cccc(Cl)c1,Potency,[3],inactive
Cc1nc2ccccc2c(=O)n1-c1ccccc1Cl,Potency,[15],"inconclusive: 47.9 µM [falling, partial curve, poor fit]"
CCNc1nc(Cl)nc(NC(C)(C)C)n1,Potency,[4],"inconclusive: 61.1 µM [activator, single point]"
COC(=O)c1ccc(CBr)cc1,cAMP activity change,[5],inactive: -0.955%
same,Potency,[11],"inconclusive: 69.4 µM [activator, single point]"
Clc1ccc(C2(Cn3cncn3)CC(Br)CO2)c(Cl)c1 (stereo not drawn),"activity, negative = inhibition",[16],inconclusive: -10.5%
CCOC1Oc2ccc(OS(C)(=O)=O)cc2C1(C)C (stereo not drawn),Potency,[15],inactive
CCCCc1c(C)nc(NCC)[nH]c1=O,Potency,[17],inactive
CCOC(=O)C(SP(=S)(OC)OC)c1ccccc1 (stereo not drawn),Potency,[13],"inconclusive: 79.6 µM [falling, single point]"
CNCC(O)c1ccc(O)cc1 (stereo not drawn),Potency,[18],inactive
same,Potency,[16],"inconclusive: 0.0952 µM [cytotoxic, single point]"
Cc1cnc(C2=NC(C)(C(C)C)C(=O)N2)c(C(=O)O)c1 (stereo not drawn),Potency,[19],inactive
CCN(CC)CCN1C(=O)CN=C(c2ccccc2F)c2cc(Cl)ccc21,Potency,[20],"inconclusive: 25.1 µM [activator, single point]"
OCCOCCO,"activity, negative = inhibition",[16],inconclusive: -11.1%
OC[C@@H](O)[C@H]1O[C@@H]2O[C@H](C(Cl)(Cl)Cl)O[C@@H]2[C@H]1O,Potency,[11],inactive
COc1ccc(-c2ccccc2)cc1NNC(=O)OC(C)C,Potency,[15],"inconclusive: 57.2 µM [falling, partial curve, poor fit]"
same,"activity, negative = inhibition",[16],inconclusive: -1.86%
CN1C[C@@H](NS(=O)(=O)N(C)C)C[C@@H]2c3cccc4c3c(cn4C)C[C@H]21,Potency,[14],"inconclusive: 12.6 µM [activator, partial curve, poor fit]"
COc1cc(C[C@@H](C)N)c(OC)cc1C,Potency,[20],"inconclusive: 10 µM [activator, single point]"
N#CC(Br)(Br)C(N)=O,Potency,[11],inactive
Cc1cnc[nH]1,Potency,[7],inactive
CCCSC(=O)Cl,Potency,[9],inactive
